Measured values from PubChem BioAssay AID588855 (National Center for Advancing Translational Sciences (NCATS), 2011).
Out of some 410,000 compounds screened, about 5,000 (1.2%) were called active. The shares of active, inactive and inconclusive entries below differ from those in the screen. Calls follow the shape of the dose curve; as a rule, active = well fitted inhibition curve with a large enough effect; inconclusive = small, poorly fitted or top-dose-only effect; inactive = no such curve, though single readings can be large or run the other way. Potencies of inconclusive entries are doubtful fits and often do not repeat.
Potency is read from the fitted curve at half-maximal effect; tags tell the direction and shape of the fitted curve.

Experiment: qHTS for Inhibitors of TGF-b; also: nearly all actives have a fitted effect of over 65% in size
Conditions: HepG2 CAGA-GFP TGF-b/SMAD3 reporter, GFP fluorescence, 18 h, TGF-beta stimulated, 500 pg/mL final; series mostly up to 46.1 µM
In short: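 Inhibition was scored as loss of TGF-beta-induced (500 pg/mL final, 18 hours, 37 degrees C) GFP in HEPG2 cells carrying a CAGA-GFP reporter, in DMEM with 1% FBS. Well GFP was summed per cell; Activity was normalised to unstimulated and stimulated DMSO wells, then concentration-response fitting.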
With `Cc1cc2ccccc2n1CCNC(=O)COc1ccc2ccccc2c1` the Potency was inconclusive: 22.4 µM [inhibitor, single point].
With `COc1ccc(OC)c(Nc2ncnc3c2cnn3-c2cccc(C)c2)c1` the Potency was “inactive”.
With `NC(=S)NN=C1CCCC(C(F)(F)F)C1` (centres undefined) the Potency was inconclusive: 35.5 µM [inhibitor, partial curve, poor fit].
For `Cc1ccc(SCC(=O)Nc2ccc(N3CCN(C)CC3)c(F)c2)cc1`, the Potency was inconclusive: 5.62 µM [inhibitor, single point].
In the case of `CCC(=NCCc1c(C)[nH]c2ccc(C)cc12)C1=C(O)CC(c2ccccc2)CC1=O` (centres undefined), the Potency is reported as inconclusive: 15.8 µM [inhibitor, partial curve, poor fit].
With `O=C(Nc1ccc(Cl)cc1Cl)[C@@H]1CC=C[C@@H]2CCN(C3CC3)C(=O)[C@@H]21` the Potency was inconclusive: 11.2 µM [inhibitor, partial curve, poor fit].
With `O=C(Nc1cccc(F)c1)N1CCc2nc(NCc3cccc(Oc4ccccc4)c3)ncc2C1` the Potency was inconclusive: 11.2 µM [inhibitor, partial curve, poor fit].
For `COc1ccc(C(C(=O)Nc2ccc(C(C)C)cc2)N(C)C(=O)c2ccc(=O)[nH]c2)cc1` (centres undefined), the Potency was “inactive”.
With `NC(=O)C(c1ccc(Br)cc1)c1ccc(C(=O)c2ccccc2)cc1` (centres undefined) the Potency was inconclusive: 22.4 µM [inhibitor, single point].
For `Cc1noc(/C=C/c2ccccc2F)c1S(=O)(=O)N1CCC(C(=O)NCc2ccco2)CC1`, the Potency was inconclusive: 2.51 µM [inhibitor, full curve, poor fit].
With `O=C(O)c1cccc(NC2=C(n3nnc4ccccc43)C(=O)c3ccccc3C2=O)c1` the Potency was “inactive”.
For `CCC(=O)c1ccc(Oc2ccc(C(=O)c3ccc(C)cc3)cc2[N+](=O)[O-])cc1`, the Potency was inconclusive: 20 µM [inhibitor, partial curve, poor fit].
In the case of `CCOC(=O)N1CCN(c2ncc3c(n2)CC(c2ccc(OC)c(OC)c2)CC3=O)CC1` (centres undefined), the Potency is reported as “inactive”.
For `COc1ccc(CCNC(=O)C(=O)NCC2OCCN2S(=O)(=O)c2cc(F)ccc2F)cc1` (centres undefined), the Potency was “inactive”.
For `O=C(COc1ccc2ccc(=O)oc2c1)NC1CCCCC1`, the Potency was inconclusive: 5.62 µM [inhibitor, single point].
With `CN(C)c1ccc(/C=C/c2ccnc3ccc(O)cc23)cc1` the Potency was “inactive”.
In the case of `CC(=O)N(c1nc(CCl)cs1)c1ccc(C)cc1C`, the Potency is reported as inconclusive: 6.31 µM [inhibitor, single point].
With `COC(C[C@@H]1O[C@@H]1[C@@H](O)[C@H](C)OCc1ccccc1)OC` the Potency was “inactive”.
With `Cc1cc(Nc2ccc(Br)cc2)nc(-c2ccccc2O)n1` the Potency was inconclusive: 15.8 µM [inhibitor, partial curve, poor fit].
For `Cc1c(Cl)cccc1NC(=S)NC1CCCC1`, the Potency was “inactive”.
With `O=C(N/N=C/C(Br)=C\c1ccccc1)c1ccc2nc[nH]c2c1` the Potency was inconclusive: 11.2 µM [inhibitor, partial curve, poor fit].
For `CN1OC[C@@H]2CN(Cc3ccccc3)[C@H](c3cccc(-c4ccc(C#N)cc4)c3)C[C@@H]21`, the Potency was active: 10 µM.
In the case of `N#Cc1ccc(N2CCCC2C(=O)O)c([N+](=O)[O-])c1` (centres undefined), the Potency is reported as inconclusive: 6.31 µM [inhibitor, single point].
For `O=C(COC(=O)c1ccccc1O)NC1CCCc2ccccc21` (centres undefined), the Potency was “inactive”.
In the case of `COc1ccccc1Cc1nc2ccccc2nc1SCC(=O)N1CCCCC1`, the Potency is reported as inconclusive: 35.5 µM [inhibitor, single point].
In the case of `CCC[C@@H]1CCCO[C@@](C(=O)NCc2ccc(S(C)(=O)=O)cc2)(C(F)(F)F)C1`, the Potency is reported as inconclusive: 28.2 µM [inhibitor, single point].
For `CCCn1nnc(NC(=S)NC(=O)c2ccc(-c3ccc(Br)cc3)o2)n1`, the Potency was inconclusive: 8.91 µM [inhibitor, partial curve, poor fit].
In the case of `CCN(CC(=O)Nc1cc(Cl)ccc1C)C(=O)C1CCN(c2ncnc3sc(C)c(C)c23)CC1`, the Potency is reported as inconclusive: 11.2 µM [inhibitor, partial curve, poor fit].
For `CN(Cc1ccccc1F)C(=O)c1ccc(Oc2ccccc2)cc1`, the Potency was inconclusive: 35.5 µM [inhibitor, single point].
In the case of `C/C(=C\C(=O)c1ccccc1)NCc1ccc(F)cc1`, the Potency is reported as inconclusive: 0.562 µM [inhibitor, full curve, poor fit].
For `CC(C)C[C@@H](C(=O)NCc1ccco1)N1C(=O)N2CCc3c([nH]c4ccccc34)[C@@]2(C)C1=O`, the Potency was inconclusive: 25.1 µM [inhibitor, single point].
With `O=C(CSc1nnnn1-c1ccccc1)CC(=O)Nc1ccc(Cl)cc1` the Potency was inconclusive: 15.8 µM [inhibitor, partial curve, poor fit].
In the case of `CC(=O)Nc1ccccc1OC(C)C(=O)NC(C)c1ccc(F)cc1` (centres undefined), the Potency is reported as “inactive”.
For `CCC(CC)C(=O)N1N=C(c2ccc(NS(C)(=O)=O)cc2)CC1c1ccc(C)cc1` (centres undefined), the Potency was inconclusive: 12.6 µM [inhibitor, partial curve, poor fit].
With `N#Cc1c(-c2ccccc2)ccn(Cc2cccc(Cl)c2)c1=O` the Potency was inconclusive: 10 µM [inhibitor, partial curve, poor fit].
In the case of `O=C(CCc1ccccc1)N(Cc1cccnc1)c1nc2ccc(F)cc2s1`, the Potency is reported as inconclusive: 35.5 µM [inhibitor, single point].
For `Cc1ccc(O)c(C(CC(=O)NC(C)C)c2ccccc2)c1` (centres undefined), the Potency was inconclusive: 10 µM [inhibitor, partial curve, poor fit].
For `Cc1ccccc1Nc1nc(N)c2ccccc2n1`, the Potency was “inactive”.
For `CCC(C(=O)Nc1ccon1)c1ccccc1` (centres undefined), the Potency was “inactive”.
For `COc1ccc(/C=C2/SC(=S)N(CCCC(=O)Nc3cccc(O)c3)C2=O)cc1`, the Potency was inconclusive: 17.8 µM [inhibitor, single point].
For `COc1ccc(NC(=O)C(NC(=O)c2ccc(C)cc2)c2ccccc2)cc1` (centres undefined), the Potency was inconclusive: 28.2 µM [inhibitor, single point].
In the case of `O=C1c2ccc([N+](=O)[O-])cc2S(=O)(=O)N1Cc1ccccc1`, the Potency is reported as “inactive”.
In the case of `CCCn1c(=O)c(C(=O)NNC(=O)c2ccccc2Cl)c(O)c2ccccc21`, the Potency is reported as inconclusive: 22.4 µM [inhibitor, single point].
In the case of `COCCOC(=O)c1c(N)n(CCCN2CCOCC2)c2nc3ccccc3nc12`, the Potency is reported as “inactive”.
With `Cc1cccc(OCCSc2nc3c([nH]2)c(=N)ncn3Cc2ccccc2)c1` the Potency was inconclusive: 0.708 µM [inhibitor, full curve, poor fit].
With `CCCCNC(=O)c1nc(C2CCN(S(=O)(=O)c3csc(C(=O)O)c3)CC2)oc1-c1ccccc1` the Potency was “inactive”.
For `COc1ccc(/C=C(\NC(=O)c2ccc(C)cc2)C(=O)NCCN2CCOCC2)cc1`, the Potency was “inactive”.
With `COc1cc(C2C(C#N)=C(N)Oc3cc4c(cc32)OCO4)cc(OC)c1OC` (centres undefined) the Potency was inconclusive: 1 µM [inhibitor, full curve, poor fit].
In the case of `Cc1ccc(NC(=O)CN(C)C(=O)C(Sc2ccccc2)c2ccccc2)cc1` (centres undefined), the Potency is reported as inconclusive: 11.2 µM [inhibitor, partial curve, poor fit].
For `Cc1ccccc1Cn1nnc2c(=O)[nH]c(C3CCCN(C(=O)c4ccc(C(C)(C)C)cc4)C3)nc21` (centres undefined), the Potency was inconclusive: 35.5 µM [inhibitor, partial curve, poor fit].
In the case of `O=C(/C=C/c1ccc([N+](=O)[O-])s1)N1CCCCC1`, the Potency is reported as active: 12.6 µM.
With `COc1ccc(-c2cc(=O)oc3c(C)c(OC(C)C(=O)Nc4ccc(CN5CCOCC5)cc4)ccc23)cc1` (centres undefined) the Potency was inconclusive: 10 µM [inhibitor, partial curve, poor fit].
In the case of `CCCCCCCC(=O)N/N=C/c1ccc([N+](=O)[O-])o1`, the Potency is reported as inconclusive: 35.5 µM [inhibitor, single point].
For `CCOc1ccc2nc3cc(N=Nc4ccc(N)nc4N)ccc3c(N)c2c1`, the Potency was inconclusive: 35.5 µM [inhibitor, single point].
For `CC1=C(C(=O)OC(C)(C)C)C(c2ccco2)C(C#N)=C(N)O1` (centres undefined), the Potency was inconclusive: 17.8 µM [inhibitor, partial curve, poor fit].
For `CN(C)C(=O)CCc1ccc2c3c([nH]c2c1)[C@]1(CCC2CCCC2)[C@@H](C(=O)N2CCOCC2)C[C@H](CC(=O)NCCC2=CCCCC2)C(=O)N1CC3`, the Potency was inconclusive: 17.8 µM [inhibitor, single point].
With `COc1ccc(CCC(=O)Nc2c(-c3ccc(N(C)C)cc3)[nH][nH]c2=O)cc1` the Potency was inconclusive: 14.1 µM [inhibitor, single point].
In the case of `COc1ccc(S(=O)(=O)N2CCC(O)(c3ccc(Cl)cc3)CC2)cc1`, the Potency is reported as inconclusive: 35.5 µM [inhibitor, single point].
In the case of `COc1cc(C(=O)Nc2ccccc2N2CCCCC2)cc(OC)c1OC`, the Potency is reported as inconclusive: 3.98 µM [inhibitor, single point].
With `Cc1nc2ccc3nc(NC(=O)C4COc5ccccc5O4)sc3c2s1` (centres undefined) the Potency was inconclusive: 5.01 µM [inhibitor, partial curve, poor fit].
With `CCC(C)(C)c1ccc(OCCCC[n+]2cccc(C)c2)c(C(C)(C)CC)c1` the Potency was active: 10 µM.
In the case of `C=CCNc1oc(-c2cccc(Cl)c2)nc1C#N`, the Potency is reported as inconclusive: 35.5 µM [inhibitor, single point].
In the case of `CCCCCCC(=O)N/N=C/c1ccc(Br)cc1`, the Potency is reported as inconclusive: 25.1 µM [inhibitor, single point].
In the case of `COc1ccc(OC)c(CCNC(=O)c2cnn(-c3ccccc3)c2-n2cccc2)c1`, the Potency is reported as inconclusive: 17.8 µM [inhibitor, partial curve, poor fit].
